According to the supplement of paper PMC12217912:
Some of the results follow. Sequences were assembled here from the parent chain. Inactive controls read about 0.05.

B1: TEV protease; numbered along this chain (parent)
chain: MGESLFKGPRDYNPISSSICHLTNESDGHTTSLYGIGFGPFIITNKHLFRRNNGTLVVQSLHGVFKVKDTTTLQQHLVDGRDMIIIRMPKDFPPFPQKLKFREPQREERICLVTTNFQTKSMSSMVSDTSCTFPSGDGIFWKHWIQTKDGQCGSPLVSTRDGFIVGIHSASNFTNTNNYFTSVPKNFMELLTNQEAQQWVSGWRLNADSVLWGGHKVFMVKPEEPFQPVKEATQL

Variants of: B1
Assay: raw area under fraction-flipped curve 0-4 h after induction (AUC4h, not background-subtracted), DNA-recorder readout of cleavage of the substrate (dimensionless); higher = more cleavage of the substrate by the protease variant
Details: temperature: 34 °C; time window: 0-4 h after rhamnose induction
Experimental: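 In vivo DNA recorder in E. coli TOP10(DE3) ΔrhaA at 34 °C. Each TEVp single-site mutant (parent TEVp 0) is paired with a single-site variant of the 7-mer TEVs (canonical ENLYFQ|S). The substrate sits between flexible linkers in a Bxb1-sfGFP-TEVs-SsrA fusion, so cleavage stabilises Bxb1 and speeds flipping of a recombination array, read by NGS. The value is the raw area under the fraction-flipped curve over 0-4 h after rhamnose induction (AUC4h), with ≥20 reads per time point. It is not background-subtracted; inactive controls average about 0.047.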
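Note: Bxb1 expression induced with 0.2% (w/v) L-rhamnose at OD600 near 0.5, cultures sampled hourly, flipped fraction per protease–substrate barcode pair counted by paired-end Illumina sequencing.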

| Variant | area with substrate EALYFQS | area with substrate ECLYFQS | area with substrate EELYFQS | area with substrate EHLYFQS | area with substrate EILYFQS | area with substrate EKLYFQS | area with substrate ELLYFQS | area with substrate EPLYFQS | area with substrate EQLYFQS | area with substrate ESLYFQS | area with substrate EVLYFQS | area with substrate EYLYFQS | area with substrate EDLYFQS | area with substrate EFLYFQS | area with substrate EMLYFQS | area with substrate ERLYFQS | area with substrate EGLYFQS | area with substrate ETLYFQS | area with substrate EWLYFQS |
| --- | --- | --- | --- | --- | --- | --- | --- | --- | --- | --- | --- | --- | --- | --- | --- | --- | --- | --- | --- |
| MGESLFKGPRDYNPISSDICHLTNESDGHTTSLYGIGFGPFIITNKHLFRRNNGTLVVQSLHGVFKVKDTTTLQQHLVDGRDMIIIRMPKDFPPFPQKLKFREPQREERICLVTTNFQTKSMSSMVSDTSCTFPSGDGIFWKHWIQTKDGQCGSPLVSTRDGFIVGIHSASNFTNTNNYFTSVPKNFMELLTNQEAQQWVSGWRLNADSVLWGGHKVFMVKPEEPFQPVKEATQL [S18D] | 0.102 | 0.0871 | 0.0852 | 0.101 | 0.0852 | 0.101 | 0.071 | 0.13 | 0.0842 | 0.0947 | 0.0783 | 0.0974 |  |  |  |  |  |  |  |
| MGESLFKGPRDYNPISSSIIHLTNESDGHTTSLYGIGFGPFIITNKHLFRRNNGTLVVQSLHGVFKVKDTTTLQQHLVDGRDMIIIRMPKDFPPFPQKLKFREPQREERICLVTTNFQTKSMSSMVSDTSCTFPSGDGIFWKHWIQTKDGQCGSPLVSTRDGFIVGIHSASNFTNTNNYFTSVPKNFMELLTNQEAQQWVSGWRLNADSVLWGGHKVFMVKPEEPFQPVKEATQL [C20I] | 0.105 | 0.0935 | 0.104 | 0.137 | 0.0938 | 0.116 | 0.0859 | 0.126 | 0.126 | 0.109 | 0.102 |  | 0.107 | 0.104 | 0.112 | 0.109 |  |  |  |
| MGESLFKGPRDYNPISSSICHLTNESHGHTTSLYGIGFGPFIITNKHLFRRNNGTLVVQSLHGVFKVKDTTTLQQHLVDGRDMIIIRMPKDFPPFPQKLKFREPQREERICLVTTNFQTKSMSSMVSDTSCTFPSGDGIFWKHWIQTKDGQCGSPLVSTRDGFIVGIHSASNFTNTNNYFTSVPKNFMELLTNQEAQQWVSGWRLNADSVLWGGHKVFMVKPEEPFQPVKEATQL [D27H] | 0.123 | 0.0869 | 0.116 |  |  |  |  |  |  | 0.0416 |  |  |  |  | 0.114 | 0.111 | 0.102 | 0.0931 |  |
| MGESLFKGPRDYNPISSSICHLTNESIGHTTSLYGIGFGPFIITNKHLFRRNNGTLVVQSLHGVFKVKDTTTLQQHLVDGRDMIIIRMPKDFPPFPQKLKFREPQREERICLVTTNFQTKSMSSMVSDTSCTFPSGDGIFWKHWIQTKDGQCGSPLVSTRDGFIVGIHSASNFTNTNNYFTSVPKNFMELLTNQEAQQWVSGWRLNADSVLWGGHKVFMVKPEEPFQPVKEATQL [D27I] | 0.107 |  | 0.0948 | 0.0891 | 0.0467 | 0.0798 |  | 0.0725 |  | 0.0763 | 0.0915 | 0.0713 |  |  | 0.0858 | 0.101 | 0.0633 | 0.103 | 0.0627 |
| MGESLFKGPRDYNPISSSICHLTNESDGHTMSLYGIGFGPFIITNKHLFRRNNGTLVVQSLHGVFKVKDTTTLQQHLVDGRDMIIIRMPKDFPPFPQKLKFREPQREERICLVTTNFQTKSMSSMVSDTSCTFPSGDGIFWKHWIQTKDGQCGSPLVSTRDGFIVGIHSASNFTNTNNYFTSVPKNFMELLTNQEAQQWVSGWRLNADSVLWGGHKVFMVKPEEPFQPVKEATQL [T31M] | 0.105 | 0.0422 |  |  |  | 0.105 | 0.0875 | 0.105 |  | 0.09 |  | 0.105 |  | 0.103 |  | 0.0839 | 0.0643 | 0.0758 | 0.099 |
| MGESLFKGPRDYNPISSSICHLTNESDGHTYSLYGIGFGPFIITNKHLFRRNNGTLVVQSLHGVFKVKDTTTLQQHLVDGRDMIIIRMPKDFPPFPQKLKFREPQREERICLVTTNFQTKSMSSMVSDTSCTFPSGDGIFWKHWIQTKDGQCGSPLVSTRDGFIVGIHSASNFTNTNNYFTSVPKNFMELLTNQEAQQWVSGWRLNADSVLWGGHKVFMVKPEEPFQPVKEATQL [T31Y] | 0.138 |  |  | 0.116 |  |  | 0.0905 |  | 0.124 | 0.1 | 0.0931 |  |  | 0.0599 |  | 0.117 |  | 0.0835 |  |
| MGESLFKGPRDYNPISSSICHLTNESDGHTTSTYGIGFGPFIITNKHLFRRNNGTLVVQSLHGVFKVKDTTTLQQHLVDGRDMIIIRMPKDFPPFPQKLKFREPQREERICLVTTNFQTKSMSSMVSDTSCTFPSGDGIFWKHWIQTKDGQCGSPLVSTRDGFIVGIHSASNFTNTNNYFTSVPKNFMELLTNQEAQQWVSGWRLNADSVLWGGHKVFMVKPEEPFQPVKEATQL [L33T] | 0.149 | 0.12 | 0.117 | 0.131 | 0.129 | 0.128 |  |  | 0.174 | 0.11 |  |  |  |  |  | 0.145 |  |  |  |
| MGESLFKGPRDYNPISSSICHLTNESDGHTTSLDGIGFGPFIITNKHLFRRNNGTLVVQSLHGVFKVKDTTTLQQHLVDGRDMIIIRMPKDFPPFPQKLKFREPQREERICLVTTNFQTKSMSSMVSDTSCTFPSGDGIFWKHWIQTKDGQCGSPLVSTRDGFIVGIHSASNFTNTNNYFTSVPKNFMELLTNQEAQQWVSGWRLNADSVLWGGHKVFMVKPEEPFQPVKEATQL [Y34D] | 0.0687 | 0.0426 |  | 0.0638 |  | 0.0476 |  |  | 0.0744 | 0.0728 |  |  | 0.0998 | 0.0712 | 0.0683 |  | 0.0629 | 0.0718 | 0.0459 |
| MGESLFKGPRDYNPISSSICHLTNESDGHTTSLYFIGFGPFIITNKHLFRRNNGTLVVQSLHGVFKVKDTTTLQQHLVDGRDMIIIRMPKDFPPFPQKLKFREPQREERICLVTTNFQTKSMSSMVSDTSCTFPSGDGIFWKHWIQTKDGQCGSPLVSTRDGFIVGIHSASNFTNTNNYFTSVPKNFMELLTNQEAQQWVSGWRLNADSVLWGGHKVFMVKPEEPFQPVKEATQL [G35F] | 0.0465 |  | 0.0428 | 0.0458 | 0.0084 | 0.0432 |  |  |  | 0.0269 |  |  | 0.0437 |  |  | 0.0504 |  |  |  |
